Data on 32 variants can be found in the GPR68 mutational scans of Howard et al. (2025).

B1: GPR68, Q15743 (parent)
chain: MGNITADNSSMSCTIDHTIHQTLAPVVYVTVLVVGFPANCLSLYFGYLQIKARNELGVYLCNLTVADLFYICSLPFWLQYVLQHDNWSHGDLSCQVCGILLYENIYISVGFLCCISVDRYLAVAHPFRFHQFRTLKAAVGVSVVIWAKELLTSIYFLMHEEVIEDENQHRVCFEHYPIQAWQRAINYYRFLVGFLFPICLLLASYQGILRAVRRSHGTQKSRKDQIQRLVLSTVVIFLACFLPYHVLLLVRSVWEASCDFAKGVFNAYHFSLLLTSFNCVADPVLYCFVSETTHRDLARLRGACLAFLTCSRTGRAREAYPLGAPEASGKSGAQGEEPELLTKLHPAFQTPNSPGSGGFPTGRLA

Scores with a large standard error are left out. The source holds two more conditions with little spread; they are left out. Read del as a deletion of the residues named and ins as an insertion between two positions. For some assays here: The data file names ogerin without a concentration.

Data set [1] covers variants of B1. Briefly: cAMP reporter score (Enrich2 score, wild type = 0); higher = more signal; HEK293T, FACS bins.
The variants in data set [2] derive from B1. Briefly: surface expression score (Enrich2 score, wild type = 0); higher = more signal; HEK293T, FACS bins.

As for S221_R222insGS, the cAMP reporter score in data set [1] (pH 5.5) was -1.08; in data set [1] (pH 6) it was -0.269; in data set [1] (pH 6, modulator: ogerin), -1.04; in data set [1] (pH 6.5, modulator: ogerin), -0.772. The surface expression score in data set [2] amounted to 0.091.

For T218_Q219insGSG, the cAMP reporter score is -1.23 in data set [1] (pH 5.5); -1.26 in data set [1] (pH 6); -1.24 in data set [1] (pH 6, modulator: ogerin); -0.075 in data set [1] (pH 6.5, modulator: ogerin). Moreover, in data set [2], the surface expression score came out at 1.22.

R214_S215insGSG: the cAMP reporter score in data set [1] (pH 5.5) is -1.62; in data set [1] (pH 6), -1.24; in data set [1] (pH 6, modulator: ogerin), -0.393; in data set [1] (pH 6.5, modulator: ogerin) it was -0.383. Besides, the surface expression score in data set [2] stood at 0.946.

Take Q225del: the cAMP reporter score in data set [1] (pH 5.5) is -1.3; in data set [1] (pH 6), -1.11; in data set [1] (pH 6, modulator: ogerin), -1.39; in data set [1] (pH 6.5, modulator: ogerin), -0.734. Moreover, the surface expression score in data set [2] amounted to 0.502.

Turning to Q225V, the cAMP reporter score in data set [1] (pH 5.5) was -0.239; in data set [1] (pH 6), -0.324; in data set [1] (pH 6, modulator: ogerin) it was -0.902; in data set [1] (pH 6.5, modulator: ogerin) it was -1.02. Besides, the surface expression score in data set [2] was -0.634.

Consider Q225T, for which the cAMP reporter score in data set [1] (pH 5.5) is -1.13; in data set [1] (pH 6), 1.52; in data set [1] (pH 6.5, modulator: ogerin) it was 0.635.

On to Q225S, for which the cAMP reporter score was 0.86 in data set [1] (pH 5.5); 0.51 in data set [1] (pH 6, modulator: ogerin); 1.47 in data set [1] (pH 6.5, modulator: ogerin). The surface expression score in data set [2] is -0.224.

Consider Q225Y, for which the cAMP reporter score is 0.293 in data set [1] (pH 5.5); -0.431 in data set [1] (pH 6); 0.515 in data set [1] (pH 6, modulator: ogerin); -0.439 in data set [1] (pH 6.5, modulator: ogerin). Also, in data set [2], the surface expression score is -0.495.

Take Q225D: the cAMP reporter score in data set [1] (pH 5.5) was 0.111; in data set [1] (pH 6), -0.696; in data set [1] (pH 6, modulator: ogerin), -0.366; in data set [1] (pH 6.5, modulator: ogerin), -1.17. In data set [2], the surface expression score is -0.871.

Take Q225W: the cAMP reporter score in data set [1] (pH 5.5) was 0.583; in data set [1] (pH 6) it was -0.275; in data set [1] (pH 6, modulator: ogerin) it was 0.257; in data set [1] (pH 6.5, modulator: ogerin) it was -0.584. For the same variant, in data set [2], the surface expression score is -0.252.

Consider Q225H, for which the cAMP reporter score in data set [1] (pH 5.5) was 0.912; in data set [1] (pH 6, modulator: ogerin), 1.06; in data set [1] (pH 6.5, modulator: ogerin), -0.42. Besides, the surface expression score in data set [2] stood at 1.66.

For the variant Q225P, the cAMP reporter score in data set [1] (pH 5.5) was -0.455; in data set [1] (pH 6, modulator: ogerin), -1.32; in data set [1] (pH 6.5, modulator: ogerin) it was -2.83. Further, the surface expression score in data set [2] was -0.231.

In the case of Q225K, the cAMP reporter score in data set [1] (pH 5.5) amounted to 0.744; in data set [1] (pH 6, modulator: ogerin), 0.519. Further, the surface expression score in data set [2] worked out at 0.307.

Turning to Q225M, the cAMP reporter score in data set [1] (pH 5.5) was -0.331; in data set [1] (pH 6, modulator: ogerin), -1.45; in data set [1] (pH 6.5, modulator: ogerin) it was -0.745. Besides, the surface expression score in data set [2] was -0.378.

As for Q225G, the cAMP reporter score was 0.225 in data set [1] (pH 5.5); -0.146 in data set [1] (pH 6); 0.417 in data set [1] (pH 6, modulator: ogerin); -0.493 in data set [1] (pH 6.5, modulator: ogerin). The surface expression score in data set [2] amounted to 0.433.

With Q225N, the cAMP reporter score was -0.413 in data set [1] (pH 5.5); -0.269 in data set [1] (pH 6); -1.35 in data set [1] (pH 6, modulator: ogerin); -1.12 in data set [1] (pH 6.5, modulator: ogerin). The surface expression score in data set [2] worked out at 0.171.

In the case of Q225I, the cAMP reporter score in data set [1] (pH 5.5) was -0.345; in data set [1] (pH 6) it was -1.16; in data set [1] (pH 6, modulator: ogerin) it was -0.921; in data set [1] (pH 6.5, modulator: ogerin) it was -1.22. Moreover, in data set [2], the surface expression score is -0.304.

Q225R: the cAMP reporter score in data set [1] (pH 5.5) is -0.313; in data set [1] (pH 6) it was 0.567; in data set [1] (pH 6, modulator: ogerin), -0.221; in data set [1] (pH 6.5, modulator: ogerin), 1.18. Besides, the surface expression score in data set [2] was -0.089.

Turning to Q225L, the cAMP reporter score in data set [1] (pH 5.5) was -1.05; in data set [1] (pH 6) it was -0.451; in data set [1] (pH 6, modulator: ogerin), -0.919; in data set [1] (pH 6.5, modulator: ogerin), -0.412. For the same variant, the surface expression score in data set [2] is -0.111.

Q225C: the cAMP reporter score in data set [1] (pH 5.5) is 0.047; in data set [1] (pH 6), -0.477; in data set [1] (pH 6, modulator: ogerin) it was 0.137; in data set [1] (pH 6.5, modulator: ogerin), -0.271. In data set [2], the surface expression score was -0.945.

For Q225F, the cAMP reporter score in data set [1] (pH 5.5) is 0.819; in data set [1] (pH 6), -0.848; in data set [1] (pH 6, modulator: ogerin) it was 0.488. The surface expression score in data set [2] is -1.48.

Regarding Q225E, the cAMP reporter score is -1.54 in data set [1] (pH 5.5); -1.18 in data set [1] (pH 6); -1.4 in data set [1] (pH 6, modulator: ogerin); -1.21 in data set [1] (pH 6.5, modulator: ogerin). In data set [2], the surface expression score was -1.5.

Consider Q225A, for which the cAMP reporter score in data set [1] (pH 5.5) was -0.5; in data set [1] (pH 6, modulator: ogerin) it was -0.248. In addition, the surface expression score in data set [2] is -0.614.

Consider Q219_K220insGSG, for which the cAMP reporter score in data set [1] (pH 5.5) is -1.25; in data set [1] (pH 6), -1.4; in data set [1] (pH 6, modulator: ogerin), -1.53; in data set [1] (pH 6.5, modulator: ogerin) it was -1.01. For the same variant, the surface expression score in data set [2] amounted to 0.818.

On to R214_H216del, for which the cAMP reporter score was -1.74 in data set [1] (pH 5.5); -0.87 in data set [1] (pH 6); -1.6 in data set [1] (pH 6, modulator: ogerin); -0.799 in data set [1] (pH 6.5, modulator: ogerin). Further, the surface expression score in data set [2] is -0.211.

As to T218del, the cAMP reporter score in data set [1] (pH 5.5) was -1.31; in data set [1] (pH 6.5, modulator: ogerin), -1.11. Moreover, in data set [2], the surface expression score amounted to 0.29.

Regarding K223_D224insGSG, the cAMP reporter score in data set [1] (pH 5.5) was -1.47; in data set [1] (pH 6), -0.104; in data set [1] (pH 6, modulator: ogerin), -1.41; in data set [1] (pH 6.5, modulator: ogerin), -1.25. Further, the surface expression score in data set [2] is -0.149.

In the case of T218_Q219insG, the cAMP reporter score in data set [1] (pH 5.5) is -0.12; in data set [1] (pH 6, modulator: ogerin) it was -0.703; in data set [1] (pH 6.5, modulator: ogerin), -1.93. Further, the surface expression score in data set [2] was 0.978.

As for R213del, the cAMP reporter score in data set [1] (pH 5.5) was -1.68; in data set [1] (pH 6), -1.09; in data set [1] (pH 6, modulator: ogerin) it was -1.58; in data set [1] (pH 6.5, modulator: ogerin) it was -1.33. For the same variant, the surface expression score in data set [2] worked out at 0.006.

As to R222_K223del, the cAMP reporter score in data set [1] (pH 5.5) was -1.4; in data set [1] (pH 6) it was -0.806; in data set [1] (pH 6, modulator: ogerin), -1.5; in data set [1] (pH 6.5, modulator: ogerin) it was -1.29. Moreover, the surface expression score in data set [2] was -0.51.

On to T218_Q219del, for which the cAMP reporter score was -0.8 in data set [1] (pH 5.5); -1.71 in data set [1] (pH 6); -1.29 in data set [1] (pH 6, modulator: ogerin); -1.09 in data set [1] (pH 6.5, modulator: ogerin). The surface expression score in data set [2] is -0.53.

As to R213N, the cAMP reporter score is -0.126 in data set [1] (pH 5.5); -0.132 in data set [1] (pH 6); -0.405 in data set [1] (pH 6, modulator: ogerin); -0.378 in data set [1] (pH 6.5, modulator: ogerin). Further, the surface expression score in data set [2] was -1.18.
